# Results: IntAct's records for PubMed 27332895
# B1: Inner centromere protein (Homo sapiens), Q9NQS7 (parent)
# chain: MGTTAPGPIHLLELCDQKLMEFLCNMDNKDLVWLEEIQEEAERMFTREFSKEPELMPKTPSQKNRRKKRRISYVQDENRDPIRRRLSRRKSRSSQLSSRRLRSKDSVEKLATVVGENGSVLRRVTRAAAAAAAATMALAAPSSPTPESPTMLTKKPEDNHTQCQLVPVVEIGISERQNAEQHVTQLMSTEPLPRTLSPTPASATAPTSQGIPTSDEESTPKKSKARILESITVSSLMATPQDPKGQGVGTGRSASKLRIAQVSPGPRDSPAFPDSPWRERVLAPILPDNFSTPTGSRTDSQSVRHSPIAPSSPSPQVLAQKYSLVAKQESVVRRASRRLAKKTAEEPAASGRIICHSYLERLLNVEVPQKVGSEQKEPPEEAEPVAAAEPEVPENNGNNSWPHNDTEIANSTPNPKPAASSPETPSAGQQEAKTDQADGPREPPQSARRKRSYKQAVSELDEEQHLEDEELQPPRSKTPSSPCPASKVVRPLRTFLHTVQRNQMLMTPTSAPRSVMKSFIKRNTPLRMDPKCSFVEKERQRLENLRRKEEAEQLRRQKVEEDKRRRLEEVKLKREERLRKVLQARERVEQMKEEKKKQIEQKFAQIDEKTEKAKEERLAEEKAKKKAAAKKMEEVEARRKQEEEARRLRWLQQEEEERRHQELLQKKKEEEQERLRKAAEAKRLAEQREQERREQERREQERREQERREQERREQERQLAEQERRREQERLQAERELQEREKALRLQKEQLQRELEEKKKKEEQQRLAERQLQEEQEKKAKEAAGASKALNVTVDVQSPACTSYQMTPQGHRAPPKINPDNYGMDLNSDDSTDDEAHPRKPIPTWARGTPLSQAIIHQYYHPPNLLELFGTILPLDLEDIFKKSKPRYHKRTSSAVWNSPPLQGARVPSSLAYSLKKH
# partner: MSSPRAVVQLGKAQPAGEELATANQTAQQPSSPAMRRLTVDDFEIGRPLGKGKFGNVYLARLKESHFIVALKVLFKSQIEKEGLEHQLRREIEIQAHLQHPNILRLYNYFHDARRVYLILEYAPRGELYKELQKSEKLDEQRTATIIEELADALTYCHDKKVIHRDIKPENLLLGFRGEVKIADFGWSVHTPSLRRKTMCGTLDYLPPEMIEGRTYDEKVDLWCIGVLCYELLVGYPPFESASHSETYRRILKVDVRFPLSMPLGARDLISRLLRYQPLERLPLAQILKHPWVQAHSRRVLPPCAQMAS
# B2: Inner centromere protein (Homo sapiens), Q9NQS7 (parent)
# chain: B1 chain
# Key:
# [1] = variants of: B1; settings: with aurkc_human AURKC
# [2] = variants of: B1; settings: with aurkc_human AURKC; remark: listed apart in the source
# [3] = variants of: B1; settings: with aurkc_human AURKC; remark: listed apart in the source
# [4] = variants of: B1; settings: with aurkc_human AURKC; remark: listed apart in the source
# [5] = variants of: B2; settings: with aurkb_human AURKB
Variant,effect of a mutation on the interaction [1],effect of a mutation on the interaction [2],effect of a mutation on the interaction [3],effect of a mutation on the interaction [4],effect of a mutation on the interaction [5]
T892A;S893A;S894A,disrupting interaction,decreasing interaction,with no effect,decreasing interaction strength,–
T892A;S893A;S894A,–,–,–,–,decreasing interaction strength
